Values of other authors, collected in US10987332B2, “Sprayable aqueous composition comprising glyceryl trinitrate” (G. POHL-BOSKAMP GMBH & CO. KG, priority 2013, dated 2021).

Legend:
[1] = system: Sprague-Dawley rats; conditions: 5 DAYS RIP; during 90 min FPO; mean±SD
[2] = system: Sprague-Dawley rats; conditions: 5 DAYS RIP; during FPO; Lown classification
[3] = system: Sprague-Dawley rats; conditions: 5 DAYS RIP; micro-CT; mean±SD

SMILES	ST segment elevation [1] [mV]	rats with class 0 arrhythmias [2] [%]	rats with class IIIb arrhythmias [2] [%]	rats with class IVb arrhythmias [2] [%]	Collateral diameters of ROI [3] [μm]
CC(=O)Oc1ccccc1C(=O)O [ASA, acetyl salicylic acid]	0.138±0.098	–	–	–	–
O=[N+]([O-])O[C@H]1CO[C@H]2[C@@H]1OC[C@H]2O[N+](=O)[O-] [ISDN, isosorbide dinitrate]	0.062±0.027	14.3	28.6	57.1	148.2±11.3
